Measurements published in patent publication US20250066509A1.

What was measured:
Experiment in all cases: cell-based or functional assay
[1] = biological target: human FGFR3c/βKlotho receptor (human), P22607
[2] = biological target: human FGFR2c/βKlotho receptor (human), P21802
[3] = biological target: human FGFR1c/βKlotho receptor (human), P11362
Chain of human FGFR1c/βKlotho receptor (human), P11362 (P11362 22-822, chain 1 of 2): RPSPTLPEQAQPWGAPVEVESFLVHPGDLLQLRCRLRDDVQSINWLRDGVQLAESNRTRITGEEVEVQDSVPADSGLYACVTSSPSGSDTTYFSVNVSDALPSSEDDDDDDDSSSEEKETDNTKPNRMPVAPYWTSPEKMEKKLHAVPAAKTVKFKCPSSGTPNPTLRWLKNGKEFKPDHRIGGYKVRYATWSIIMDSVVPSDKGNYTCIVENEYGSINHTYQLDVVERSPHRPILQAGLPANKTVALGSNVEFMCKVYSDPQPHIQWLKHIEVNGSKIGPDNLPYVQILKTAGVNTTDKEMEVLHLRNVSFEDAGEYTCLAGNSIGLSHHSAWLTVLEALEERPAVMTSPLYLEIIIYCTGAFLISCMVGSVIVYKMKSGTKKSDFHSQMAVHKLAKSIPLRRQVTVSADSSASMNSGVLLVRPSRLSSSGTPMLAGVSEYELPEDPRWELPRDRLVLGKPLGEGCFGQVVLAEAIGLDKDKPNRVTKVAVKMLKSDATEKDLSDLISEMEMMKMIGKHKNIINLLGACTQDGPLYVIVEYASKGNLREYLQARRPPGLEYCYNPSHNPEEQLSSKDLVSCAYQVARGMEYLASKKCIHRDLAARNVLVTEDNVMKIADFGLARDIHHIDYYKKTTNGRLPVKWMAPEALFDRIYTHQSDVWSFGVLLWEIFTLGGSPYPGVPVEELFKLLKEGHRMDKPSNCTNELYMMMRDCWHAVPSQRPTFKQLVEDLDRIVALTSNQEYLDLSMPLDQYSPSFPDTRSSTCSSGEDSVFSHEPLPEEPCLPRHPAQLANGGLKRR
Chain of human FGFR1c/βKlotho receptor (human), P11362 (chain, as listed by the source, chain 2 of 2): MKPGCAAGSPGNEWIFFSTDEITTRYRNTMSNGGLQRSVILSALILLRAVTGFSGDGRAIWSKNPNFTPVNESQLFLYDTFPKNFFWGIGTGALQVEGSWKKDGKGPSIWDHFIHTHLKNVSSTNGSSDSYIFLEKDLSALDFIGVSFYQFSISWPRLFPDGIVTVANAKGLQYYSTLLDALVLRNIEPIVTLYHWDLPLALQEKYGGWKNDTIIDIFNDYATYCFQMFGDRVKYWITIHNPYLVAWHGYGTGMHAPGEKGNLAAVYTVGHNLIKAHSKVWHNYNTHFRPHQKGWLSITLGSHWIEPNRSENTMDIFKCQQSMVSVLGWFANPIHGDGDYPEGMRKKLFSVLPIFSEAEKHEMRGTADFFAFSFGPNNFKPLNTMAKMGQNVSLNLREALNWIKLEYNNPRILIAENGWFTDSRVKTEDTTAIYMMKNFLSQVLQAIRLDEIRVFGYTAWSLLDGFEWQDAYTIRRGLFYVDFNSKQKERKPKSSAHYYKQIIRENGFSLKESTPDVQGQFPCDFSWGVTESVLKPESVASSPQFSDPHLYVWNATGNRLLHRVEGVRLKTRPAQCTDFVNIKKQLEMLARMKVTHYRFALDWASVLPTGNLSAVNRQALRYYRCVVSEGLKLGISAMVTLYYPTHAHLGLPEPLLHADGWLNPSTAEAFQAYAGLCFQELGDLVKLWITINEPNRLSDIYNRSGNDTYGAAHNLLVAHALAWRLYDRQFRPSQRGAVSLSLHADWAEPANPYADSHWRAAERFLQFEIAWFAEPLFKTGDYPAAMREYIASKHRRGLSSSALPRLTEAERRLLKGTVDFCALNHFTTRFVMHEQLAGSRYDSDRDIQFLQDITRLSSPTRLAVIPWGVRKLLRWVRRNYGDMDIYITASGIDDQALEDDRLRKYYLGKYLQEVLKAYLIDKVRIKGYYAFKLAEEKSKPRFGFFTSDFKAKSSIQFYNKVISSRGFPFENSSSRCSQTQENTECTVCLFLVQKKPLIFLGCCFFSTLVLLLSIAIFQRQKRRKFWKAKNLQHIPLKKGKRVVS

Chain of human FGFR3c/βKlotho receptor (human), P22607 (P22607 23-806, chain 1 of 2): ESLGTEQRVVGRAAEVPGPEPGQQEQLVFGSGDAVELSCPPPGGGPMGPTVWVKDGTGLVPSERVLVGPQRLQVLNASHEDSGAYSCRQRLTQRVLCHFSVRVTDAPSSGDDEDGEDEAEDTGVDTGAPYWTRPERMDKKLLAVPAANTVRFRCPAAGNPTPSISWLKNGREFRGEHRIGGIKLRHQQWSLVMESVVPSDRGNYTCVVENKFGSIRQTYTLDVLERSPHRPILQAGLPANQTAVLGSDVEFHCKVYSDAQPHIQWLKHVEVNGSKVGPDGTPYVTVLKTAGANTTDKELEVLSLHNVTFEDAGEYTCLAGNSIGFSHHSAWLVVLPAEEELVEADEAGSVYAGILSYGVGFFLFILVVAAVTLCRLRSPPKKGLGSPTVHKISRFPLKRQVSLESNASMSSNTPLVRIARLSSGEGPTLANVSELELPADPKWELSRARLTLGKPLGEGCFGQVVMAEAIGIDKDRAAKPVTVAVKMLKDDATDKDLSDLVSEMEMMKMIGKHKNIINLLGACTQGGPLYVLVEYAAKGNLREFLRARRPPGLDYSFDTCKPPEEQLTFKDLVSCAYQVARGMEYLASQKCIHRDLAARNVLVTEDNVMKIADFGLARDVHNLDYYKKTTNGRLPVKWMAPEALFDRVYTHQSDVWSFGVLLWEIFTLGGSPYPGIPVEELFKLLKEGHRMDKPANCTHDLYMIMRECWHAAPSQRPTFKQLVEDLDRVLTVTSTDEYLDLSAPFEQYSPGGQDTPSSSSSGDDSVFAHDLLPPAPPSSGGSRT
Chain of human FGFR3c/βKlotho receptor (human), P22607 (chain, as listed by the source, chain 2 of 2): as the sequence (chain, as listed by the source, chain 2 of 2) above
Chain of human FGFR2c/βKlotho receptor (human), P21802 (P21802 22-821, chain 1 of 2): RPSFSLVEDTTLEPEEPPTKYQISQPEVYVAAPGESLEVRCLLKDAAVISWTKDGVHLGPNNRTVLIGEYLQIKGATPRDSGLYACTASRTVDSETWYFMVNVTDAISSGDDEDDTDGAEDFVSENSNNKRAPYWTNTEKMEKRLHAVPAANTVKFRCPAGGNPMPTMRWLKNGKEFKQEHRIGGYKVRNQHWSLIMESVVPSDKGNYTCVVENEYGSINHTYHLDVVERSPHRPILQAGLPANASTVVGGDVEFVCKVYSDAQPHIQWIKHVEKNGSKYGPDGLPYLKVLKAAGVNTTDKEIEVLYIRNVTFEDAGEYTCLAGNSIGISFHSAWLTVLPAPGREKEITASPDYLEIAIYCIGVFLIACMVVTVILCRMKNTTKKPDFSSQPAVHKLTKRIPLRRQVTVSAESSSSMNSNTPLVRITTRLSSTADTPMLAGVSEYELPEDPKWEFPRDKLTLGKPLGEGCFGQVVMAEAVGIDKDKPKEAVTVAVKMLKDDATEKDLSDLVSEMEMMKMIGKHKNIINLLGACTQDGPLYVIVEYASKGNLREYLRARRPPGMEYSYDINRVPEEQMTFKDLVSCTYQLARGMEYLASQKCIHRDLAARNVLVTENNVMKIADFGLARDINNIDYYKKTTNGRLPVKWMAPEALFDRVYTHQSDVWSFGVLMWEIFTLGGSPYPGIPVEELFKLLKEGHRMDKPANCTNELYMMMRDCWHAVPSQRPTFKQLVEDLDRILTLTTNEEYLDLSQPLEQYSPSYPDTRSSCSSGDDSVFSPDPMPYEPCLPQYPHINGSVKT
Chain of human FGFR2c/βKlotho receptor (human), P21802 (chain, as listed by the source, chain 2 of 2): as the sequence (chain, as listed by the source, chain 2 of 2) above

- EC50, luciferase reporter-based assay (receptor activation) [1]: > 100 nM
- EC50, luciferase reporter-based assay (receptor activation) [2]: > 100 nM
- EC50, luciferase reporter-based assay (receptor activation) [3]: 0.66 nM
B1: CB-8-42 (antibody, human IgG1, kappa)
heavy: EVQLVQSGAEVKKPGASVKVSCKASGYTFTSYGISWVRQAPGQGLEWMGWISAYSGNTNYAQKLQGRVTMTTDTSTSTAYMELRSLRSDDTAVYYCATLLPSGSLYYWGQGTLVTVSSASTKGPSVFPLAPSSKSTSGGTAALGCLVKDYFPEPVTVSWNSGALTSGVHTFPAVLQSSGLYSLSSVVTVPSSSLGTQTYICNVNHKPSNTKVDKKV[letters of human IgG1 Fc with E233A L235A (EU numbers) left out]
light: DIVMTQSPSSLSAPVGDRVTITCQASQDIRNYINWFQQKPGKAPKLLIYAASYLQSGVPSRFSGSGSGTDFTLTISSLQPEDFATYYCQQSYSTPQWTFGQGTKVEIKRTVAAPSVFIFPPSDEQLKSGTASVVCLLNNFYPREAKVQWKVDNALQSGNSQESVTEQDSKDSTYSLSSTLTLSKADYEKHKVYACEVTHQGLSSPVTKSFNRGEC
